Measurements taken from PubChem BioAssay AID1963576 (National Center for Advancing Translational Sciences (NCATS), 2024).
The campaign covered roughly 46,000 compounds. About 60 (0.1%) were called active. About 3% were inconclusive and are not listed. Calls come from the whole dose curve; as a rule, active = well fitted inhibition curve with a large enough effect; inconclusive = small, poorly fitted or top-dose-only effect; inactive = no such curve, though single readings can be large or run the other way. The list shows a part of the results.

Assay: Primary qHTS assay for Inhibitors of ovarian cancer metastasis using an organotypic tumor microenvironment (TME) model.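 For activity change, negative = inhibition: plate controls were DMSO wells for no effect and tomatine positive control wells for full effect.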 Note: nearly all actives have a fitted effect of over 65% in size.
Settings: SKOV3ip1-GFP adhesion/invasion on 3D omental model, fluorescence; series mostly up to 45.8 µM; activity change, negative = inhibition: at the top concentration
How it was run: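 Adhesion/invasion was scored as fixed GFP-labeled SKOV3ip1 cell counts (488/509 nm), normalized to DMSO and tomatine controls. Cancer cells in serum-free medium, with four compound doses (0.36-46 umol/L), sat 2 hr at RT then 16 hr at 37 C on a 48 hr fibroblast/mesothelial/ECM culture.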

outcome, inactive:
CC(=O)c1[nH]c(C)c(C(=O)NCc2ccc(Cl)cc2)c1C, Cc1ccccc1CN1C(=O)c2ccccc2Sc2ccc(C(=O)N3CCOCC3)cc21, Nc1nc2nc(-c3ccc(Cl)cc3)cc(C(F)(F)F)n2n1

Activity change, negative = inhibition, inactive:
O=C(Nc1ccc2oc(-c3cccc4c(Br)cccc34)nc2c1)c1ccc(Br)cc1 -9.01%, COc1ccccc1-c1c(C(F)(F)F)oc2c(CN3CCCCC3C)c(O)ccc2c1=O (configuration not stated) 10.6%, Cc1ccc(S(=O)(=O)N2CCC(C(=O)Nc3cc(C)ccc3C)CC2)cc1 -6.77%, Cc1cccc(NC(=O)CSc2nc3c(oc4ccccc43)c(=O)n2-c2ccccc2)c1C 8.2%, CCc1cc(=O)oc2cc(C)c3c(-c4ccc(F)cc4)coc3c12 46.5%, O=C(CSc1c2c(nc3ccccc13)CCC2)Nc1ccc(F)cc1F -1.58%, Cc1ccnc(NS(=O)(=O)c2ccc(NC(=O)Nc3ccc(S(=O)(=O)Nc4nccc(C)n4)cc3)cc2)n1 8.62%, CCOC(=O)c1[nH]c(C)c(CCC(=O)NCc2cccc(Cl)c2)c1C -1.45%, Cc1ccc(OCCSc2nc(-c3cccs3)nc3cc(=O)[nH]n23)cc1Cl -18.9%, COc1ccc(Cn2c(=O)c3oc4ccccc4c3n(Cc3ccccc3)c2=O)cc1 -1.94%, COc1cc(-c2cc3n(C)c(C)c(CCC(=O)Nc4ccc(F)cc4)c(=O)n3n2)cc(OC)c1OC 2.12%, COC(=O)c1ccc([C@@H]2Nc3c(cccc3C(F)(F)F)[C@@H]3C=CC[C@@H]32)cc1 3.4%, COc1ccccc1CCNC(=O)Cc1c(C)c2c(O)cc(C)cc2oc1=O 0.748%, Nc1nonc1-c1nc2ccccc2n1Cc1ccc(Br)cc1 -9.61%, Cc1ccc(NC(=O)CSc2nc3c(c(=O)[nH]2)CN(Cc2ccccc2)CC3)cc1Cl 13.3%, CC(=O)N1c2ccccc2C(=O)C1N1CCN(c2cccc(C)c2C)CC1 (configuration not stated) -17.7%, Cc1ccc(NC(=O)C2=CC(c3cccs3)=NS(=O)(=O)N2C)cc1 -1.29%, CC1(C)CC(=O)c2cc(C(=O)Nc3ccc(Cl)cc3)c(=O)[nH]c2C1 -8.05%, Cc1nc2scc(C)n2c(=O)c1S(=O)(=O)Nc1ccc(N2CCN(C(=O)C(C)C)CC2)cc1 -2.22%, CC(C)(Oc1ccc(Cl)cc1)C(=O)Nc1cccc(-c2cn3cccnc3n2)c1 9.9%, CC(CNC(=O)c1sc2ncccc2c1-n1cccc1)c1ccccc1 (configuration not stated) 0.658%, O=C(CC(c1cccs1)N1Cc2ccccc2C1=O)Nc1ccccc1F (configuration not stated) 34.1%, Cc1ccc(C(=O)NCCSc2c(C)[nH]c3ccccc23)cc1C -8.54%, COc1ccc(-c2nc(S(=O)(=O)c3ccc(Cl)cc3)c(N3CCCCCC3)o2)cc1 -24.4%
